Assay results: a compilation of properties of binary mixtures (doi:10.1021/acs.jpcb.9b04724)
The densities may have been worked out from excess volumes.

Test: xn = mol fraction of the nth substance listed
Conditions: 101 kPa

Structure (SMILES) | mass density (293.15 K, x1 = 1) | mass density (313.15 K, x1 = 1) | mass density (333.15 K, x1 = 1) | mass density (293.15 K, x2 = 0) | mass density (293.15 K, x2 = 0.2114) | mass density (293.15 K, x2 = 0.3975) | mass density (293.15 K, x2 = 0.6047) | mass density (293.15 K, x2 = 0.8003) | mass density (313.15 K, x2 = 0) | mass density (313.15 K, x2 = 0.2114) | mass density (313.15 K, x2 = 0.3975) | mass density (313.15 K, x2 = 0.6047) | mass density (313.15 K, x2 = 0.8003) | mass density (333.15 K, x2 = 0) | mass density (333.15 K, x2 = 0.2114) | mass density (333.15 K, x2 = 0.6047) | mass density (333.15 K, x2 = 0.8003) | mass density (353.15 K, x2 = 0) | mass density (353.15 K, x2 = 0.6047) | mass density (353.15 K, x2 = 0.8003)
CC[n+]1ccn(C)c1.N#C[N-]C#N + CCCC[N+](C)(CCCC)CCCC.N#C[N-]C#N | 1105 kg/m3 | 1091.8 kg/m3 | 1078.9 kg/m3 |  |  |  |  |  |  |  |  |  |  |  |  |  |  |  |  | 
CCCC[N+](C)(CCCC)CCCC.N#C[N-]C#N + CC[n+]1ccn(C)c1.N#C[N-]C#N |  |  |  | 947.5 kg/m3 | 968.1 kg/m3 | 990.1 kg/m3 | 1020.4 kg/m3 | 1056.8 kg/m3 | 936.7 kg/m3 | 957 kg/m3 | 978.7 kg/m3 | 1008.6 kg/m3 | 1044.4 kg/m3 | 925.9 kg/m3 | 946 kg/m3 | 997 kg/m3 | 1032.2 kg/m3 | 915.3 kg/m3 | 985.6 kg/m3 | 1020.3 kg/m3
